Out of some 230,000 compounds screened, about 3,600 (1.6%) were called active. Inconclusive results, whose numbers are uncertain, are shown with a selection of clear calls. The call rests on the fitted dose curve; in most records, active means well fitted inhibition curve with a large enough effect (not every such curve was filed as active); inconclusive means small, poorly fitted or top-dose-only effect, or another doubt; inactive means no such curve, though single readings can be large or run the other way. Potencies of inconclusive entries are doubtful fits and often do not repeat.
The compounds below were run against Lysine-specific demethylase 4E (Homo sapiens) (UniProt B2RXH2) (assay: qHTS Assay for Inhibitors of Human Jumonji Domain Containing 2E (JMJD2E)). Conditions: JMJD2E catalytic domain, FDH-coupled NADH fluorescence (FDH is formaldehyde dehydrogenase); series mostly up to 57.1 µM; activity change, negative = inhibition: at the top concentration.
Further: nearly all actives have a fitted effect of over 50% in size.
Potency means the concentration at half of the fitted maximal effect; tags describe the fitted curve by direction and shape.
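Wherever activity change, negative = inhibition is given: 0% = wells with enzyme and -100% = buffer wells without enzyme.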

UniProt B2RXH2, sequence (B2RXH2 whole entry, looked up, the tested form may be a part): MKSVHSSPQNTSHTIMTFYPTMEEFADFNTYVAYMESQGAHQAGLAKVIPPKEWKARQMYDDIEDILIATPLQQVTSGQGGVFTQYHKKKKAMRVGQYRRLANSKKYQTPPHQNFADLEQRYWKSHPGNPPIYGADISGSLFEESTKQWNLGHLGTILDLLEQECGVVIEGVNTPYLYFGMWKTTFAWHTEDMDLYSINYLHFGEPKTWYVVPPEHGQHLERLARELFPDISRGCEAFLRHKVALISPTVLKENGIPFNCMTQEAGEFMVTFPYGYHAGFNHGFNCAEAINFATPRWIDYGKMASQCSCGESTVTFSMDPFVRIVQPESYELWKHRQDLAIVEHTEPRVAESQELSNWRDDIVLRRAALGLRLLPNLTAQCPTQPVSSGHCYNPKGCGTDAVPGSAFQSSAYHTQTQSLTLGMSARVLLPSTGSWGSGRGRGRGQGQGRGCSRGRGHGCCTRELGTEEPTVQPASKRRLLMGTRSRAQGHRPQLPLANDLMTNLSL

SMILES | Potency | activity change, negative = inhibition
O=C(CSc1ncccc1-c1nc2ccccc2[nH]1)N1CCc2ccccc21 | inconclusive: 35.5 µM [inhibitor, single point] | –
Cc1cccc(NC(=O)c2sc3nc(-c4ccc(F)cc4)cn3c2C)n1 | inconclusive: 6.31 µM [inhibitor, single point] | –
CCN(CC(=O)Nc1ccc2c(c1)OCCO2)Cc1cc(=O)oc2c(C)c(C)ccc12 | – | inactive: -17.1%
Cc1cc(C)c2nc3c(c(C(=O)O)c2c1)CCC3 | inconclusive: 28.2 µM [inhibitor, partial curve] | –
O=C1CN(Cc2nc3cc(Cl)ccc3c(=O)[nH]2)CCN1 | – | inactive: -3.76%
Oc1c(C=Nc2ccccc2Cl)[nH]c2ccccc12 | inconclusive: 25.1 µM [inhibitor, single point] | –
Nc1nonc1N/N=C/c1c(O)ccc2ccccc12 | – | inactive: -13%
O=C(N/N=C/c1ccc(N2CCOCC2)s1)c1ccccc1Br | – | inactive: -23.1%
CN1C(C(=O)Nc2ccccn2)=C(O)c2sccc2S1(=O)=O | inactive | –
COc1cc(OC)c(C(=O)Nc2ccccc2-c2ccccc2)cc1OC | inconclusive: 35.5 µM [inhibitor, single point] | –
COc1ccc(CN2CCN(S(=O)(=O)c3ccc(F)cc3)CC2)cc1OC | inconclusive: 25.1 µM [inhibitor, single point] | –
CN(Cc1c(O)ccc2c1oc(=O)c1ccccc12)C1CCCCC1 | active: 25.1 µM | –
Cc1nc(-c2ccc(S(=O)(=O)N3CCCN(CCc4ccccc4)CC3)s2)cs1 | inconclusive: 39.8 µM [inhibitor, single point] | –
Cc1nn(-c2ccccc2)c(N2CCCC2)c1/C=C1\N=C(c2ccc(OC(C)C)cc2)OC1=O | – | inactive: -6.3%
CCn1c(SCC(=O)N2CCc3ccccc32)nnc1-c1ccncc1 | – | inactive: -22.5%
O=C1CC(Cc2ccccc2)C(=O)N1CCCn1ccnc1 (configuration not stated) | inconclusive: 28.2 µM [inhibitor, single point] | –
Cc1cc(NCCN2CCCCC2)n2c(nc3ccccc32)c1C#N | inconclusive: 14.1 µM [inhibitor, partial curve] | –
Cc1ccc(N2C(N)=C(C#N)C(c3ccsc3)C3=C2CC(C)(C)CC3=O)cc1 (configuration not stated) | – | inactive: -4.85%
COC(=O)c1cc2c(ccn2C)n1C | inconclusive: 12.6 µM [inhibitor, partial curve] | –
O=C(N/N=C/c1ccc(O)cc1O)/C(=C/c1ccccc1)CCO | active: 15.8 µM | –
CC(C)CN1CN(S(=O)(=O)c2cccs2)c2nc3ccccc3nc21 | inconclusive: 28.2 µM [inhibitor, single point] | –
Cc1nc2ccc(Cl)cc2c(-c2ccccc2)c1CC(=O)O | inconclusive: 39.8 µM [inhibitor, single point] | –
CCN(CC)C(=O)CSC1=Nc2ccccc2C2=NC(c3ccccc3)C(=O)N12 (configuration not stated) | inconclusive: 25.1 µM [inhibitor, partial curve] | –
Cc1cc(C)cc(NC(=O)Nc2ccc3c(c2)N(C)C(=O)CS3)c1 | – | inactive: -11.4%

SMILES | Potency | activity change, negative = inhibition
Cc1nnc(N/N=C\c2ccc(-c3ccccc3[N+](=O)[O-])o2)n1N | – | inactive: 2.44%
C=CCn1cc(/C=N/Nc2nc3ccccc3[nH]2)c2ccccc21 | inconclusive: 39.8 µM [inhibitor, single point] | –
CCC(C)(C)n1nnnc1C(c1cc2cc(C)ccc2[nH]c1=O)N1CCCC1 (configuration not stated) | inconclusive: 20 µM [inhibitor, partial curve] | –
O=C(CC1NC(=O)NC1=O)Nc1ccc(Cl)cc1 (configuration not stated) | – | inactive: 1.65%
O=C(O)CNC(=S)N(Cc1ccccc1)Cc1cccnc1 | – | inactive: 3.11%
COc1ccc(-c2nc(-c3ccccn3)no2)cc1 | – | inactive: -1.1%
CCOC(=O)C(CCc1ccccc1)NC1CCc2ccccc2N(CC(=O)O)C1=O (configuration not stated) | inconclusive: 39.8 µM [inhibitor, single point] | –
CCn1c(SCC(=O)Nc2ccc(OC)cc2)nc2nc3c(cc2c1=O)COC(C)(C)C3 | – | inactive: -0.722%
COc1ccc(-c2nn(-c3ccccc3)cc2CO)cc1OC | inconclusive: 28.2 µM [inhibitor, partial curve] | –
Cc1c(C)n(C)c2ccc(C(=O)NCc3cccs3)cc12 | inconclusive: 25.1 µM [inhibitor, single point] | –
CO[C@H]1C=CO[C@@]2(C)Oc3c(C)c(O)c4c(O)c(c(C=NN5CCN(C6CCCC6)CC5)c(O)c4c3C2=O)NC(=O)C(C)=CC=C[C@H](C)[C@H](O)[C@@H](C)[C@@H](O)[C@@H](C)[C@H](OC(C)=O)[C@@H]1C | inconclusive: 3.16 µM [inhibitor, full curve] | –
COc1ccc(CNC(=O)Nc2cccc3ccccc23)cc1 | inconclusive: 39.8 µM [inhibitor, single point] | –
Cc1nc(N2CCOCC2)c2nc(-c3ccccc3)n(CCN(C)C)c2n1 | inconclusive: 17.8 µM [inhibitor, partial curve] | –
O=C(c1cc(-c2ccc3c(c2)OCO3)on1)N1CCN(c2ccc(F)cc2)CC1 | inconclusive: 39.8 µM [inhibitor, single point] | –
Cc1ccc(-c2cccc(CN3CCN(C4CCN(C(C)C)CC4)C(CCO)C3)c2)o1 (configuration not stated) | inconclusive: 25.1 µM [inhibitor, single point] | –
CCS(=O)(=O)c1ccc(Sc2nncn2C)c([N+](=O)[O-])c1 | – | inactive: -6.35%
CCCCn1nc2cc(C(=O)NCc3ccc4c(c3)OCO4)ccc2c1OCC | inconclusive: 28.2 µM [inhibitor, partial curve] | –
O=C(CSc1cccc2cccnc12)N/N=C/c1cccc(O)c1 | inconclusive: 31.6 µM [inhibitor, partial curve] | –
CC(C)(C)NC(=O)c1ccc2nccnc2c1 | – | inactive: 5.41%
CC(=O)Oc1ccc2oc(-c3ccccc3)c(C(N)=O)c2c1 | inconclusive: 31.6 µM [inhibitor, partial curve] | –
COc1ccc(CCNCC(O)c2ccccc2)cc1 (configuration not stated) | active: 7.94 µM | –
COc1ccc(OC)c(NC(=S)NN2CCOCC2)c1 | – | inactive: -1.2%
CN(C)c1ccc(-c2cc([C@H]3[C@@H]4C=CCC[C@@]4(C)C(=O)N3Cc3ccccc3)ccc2F)cc1 | inconclusive: 22.4 µM [inhibitor, partial curve] | –

From PubChem BioAssay AID2147 (National Center for Advancing Translational Sciences (NCATS), 2009)
